Test results from article PMC9911399, “Two distinct binding modes provide the RNA-binding protein RbFox with extraordinary sequence specificity”.
Numbering of substitutions follows the chain as printed; changes in the protein carry UniProt numbers. This is one part of the list.

T1: RBFOX1 RRM (Homo sapiens, UniProt Q9NWB1 109-208)
T1 sequence: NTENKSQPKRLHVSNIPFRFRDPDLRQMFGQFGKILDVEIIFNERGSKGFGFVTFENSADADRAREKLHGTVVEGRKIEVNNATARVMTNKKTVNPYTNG

B1: UCUUGUU (DNA:RNA)
RNA: GGGAGACCGGAAUUCAGAUUGUCCUCUUGUUUUAAAUCCCGUCGUAGCCACCA
DNA 1: CAATCTGAATTCCGGTCTCCC
DNA 2: TGGTGGCTACGACGGGATT
B2: GGCUGCC (DNA:RNA)
RNA: B1 RNA with U25G, C26G, U27C, U30C, U31C
DNA 1: CAATCTGAATTCCGGTCTCCC
DNA 2: TGGTGGCTACGACGGGATT
B3: CCCAAGC (DNA:RNA)
RNA: B1 RNA with U25C, U27C, U28A, G29A, U30G, U31C
DNA 1: CAATCTGAATTCCGGTCTCCC
DNA 2: TGGTGGCTACGACGGGATT
B4: GAUGUGU (DNA:RNA)
RNA: B1 RNA with U25G, C26A, U28G, G29U, U30G
DNA 1: CAATCTGAATTCCGGTCTCCC
DNA 2: TGGTGGCTACGACGGGATT
B5: AACGACU (DNA:RNA)
RNA: B1 RNA with U25A, C26A, U27C, U28G, G29A, U30C
DNA 1: CAATCTGAATTCCGGTCTCCC
DNA 2: TGGTGGCTACGACGGGATT
B6: UGAGACU (DNA:RNA)
RNA: B1 RNA with C26G, U27A, U28G, G29A, U30C
DNA 1: CAATCTGAATTCCGGTCTCCC
DNA 2: TGGTGGCTACGACGGGATT
B7: ACGAAGC (DNA:RNA)
RNA: B1 RNA with U25A, U27G, U28A, G29A, U30G, U31C
DNA 1: CAATCTGAATTCCGGTCTCCC
DNA 2: TGGTGGCTACGACGGGATT
B8: UAUGGGC (DNA:RNA)
RNA: B1 RNA with C26A, U28G, U30G, U31C
DNA 1: CAATCTGAATTCCGGTCTCCC
DNA 2: TGGTGGCTACGACGGGATT
B9: UUCCGGA (DNA:RNA)
RNA: B1 RNA with C26U, U27C, U28C, U30G, U31A
DNA 1: CAATCTGAATTCCGGTCTCCC
DNA 2: TGGTGGCTACGACGGGATT
B10: CCUGUUU (DNA:RNA)
RNA: B1 RNA with U25C, U28G, G29U
DNA 1: CAATCTGAATTCCGGTCTCCC
DNA 2: TGGTGGCTACGACGGGATT
B11: UGACCCG (DNA:RNA)
RNA: B1 RNA with C26G, U27A, U28C, G29C, U30C, U31G
DNA 1: CAATCTGAATTCCGGTCTCCC
DNA 2: TGGTGGCTACGACGGGATT
B12: UGCGAAG (DNA:RNA)
RNA: B1 RNA with C26G, U27C, U28G, G29A, U30A, U31G
DNA 1: CAATCTGAATTCCGGTCTCCC
DNA 2: TGGTGGCTACGACGGGATT
B13: ACAAUCU (DNA:RNA)
RNA: B1 RNA with U25A, U27A, U28A, G29U, U30C
DNA 1: CAATCTGAATTCCGGTCTCCC
DNA 2: TGGTGGCTACGACGGGATT
B14: CACCUAG (DNA:RNA)
RNA: GGGAGACCGGAAUUCAGAUUGUCCCACCUAGUUAAAUCCCGUCGUAGCCACCA
DNA 1: CAATCTGAATTCCGGTCTCCC
DNA 2: TGGTGGCTACGACGGGATT
B15: CAAUGCU (DNA:RNA)
RNA: B1 RNA with U25C, C26A, U27A, U30C
DNA 1: CAATCTGAATTCCGGTCTCCC
DNA 2: TGGTGGCTACGACGGGATT
B16: GCGACUA (DNA:RNA)
RNA: B1 RNA with U25G, U27G, U28A, G29C, U31A
DNA 1: CAATCTGAATTCCGGTCTCCC
DNA 2: TGGTGGCTACGACGGGATT
B17: CAAAGAG (DNA:RNA)
RNA: B14 RNA with C27A, C28A, U29G
DNA 1: CAATCTGAATTCCGGTCTCCC
DNA 2: TGGTGGCTACGACGGGATT
B18: GAGAGGC (DNA:RNA)
RNA: B14 RNA with C25G, C27G, C28A, U29G, A30G, G31C
DNA 1: CAATCTGAATTCCGGTCTCCC
DNA 2: TGGTGGCTACGACGGGATT
B19: CAGCCCG (DNA:RNA)
RNA: B14 RNA with C27G, U29C, A30C
DNA 1: CAATCTGAATTCCGGTCTCCC
DNA 2: TGGTGGCTACGACGGGATT
B20: AUGUGCG (DNA:RNA)
RNA: B1 RNA with U25A, C26U, U27G, U30C, U31G
DNA 1: CAATCTGAATTCCGGTCTCCC
DNA 2: TGGTGGCTACGACGGGATT

target: T1, RBFOX1 RRM; test: EMSA; HiTS-Eq, 1 nM pool, 10 min; buffer printed only for the single-RNA assays: 10 mM Tris pH 7.5, 150 mM NaCl, 3.4 mM EDTA, 0.001% NP-40, 30 C; conditions: tags: His6 N-terminal (pET28a); label: 5' 32P
Procedure, shortened: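 Relative association constants, normalised to the cognate motif, were derived by comparing read counts of each RNA species with those of the control reaction. The RNA sequenced was the free fraction, separated by 8% native PAGE after a 10 min equilibration in 50 µL of 1 nM 5′-radiolabelled RNA (7 randomized nucleotides) with increasing concentrations of purified wild-type or mutant RbFox RRM.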

Row | Binder | binding signal
1 | B1 | 0.0179 KA relative to UGCAUGU
2 | B2 | 0.012 KA relative to UGCAUGU
3 | B3 | 0.00384 KA relative to UGCAUGU
4 | B4 | 0.018 KA relative to UGCAUGU
5 | B5 | 0.00509 KA relative to UGCAUGU
6 | B6 | 0.0154 KA relative to UGCAUGU
7 | B7 | 0.00256 KA relative to UGCAUGU
8 | B8 | 0.00477 KA relative to UGCAUGU
9 | B9 | 0.00555 KA relative to UGCAUGU
10 | B10 | 0.0126 KA relative to UGCAUGU
11 | B11 | 0.0101 KA relative to UGCAUGU
12 | B12 | 0.0251 KA relative to UGCAUGU
13 | B13 | 0.000686 KA relative to UGCAUGU
14 | B14 | 0.0026 KA relative to UGCAUGU
15 | B15 | 0.00496 KA relative to UGCAUGU
16 | B16 | 0.00785 KA relative to UGCAUGU
17 | B17 | 0.00411 KA relative to UGCAUGU
18 | B18 | 0.00793 KA relative to UGCAUGU
19 | B19 | 0.00699 KA relative to UGCAUGU
20 | B20 | 0.0183 KA relative to UGCAUGU
